# In a collection of fitness landscapes (doi:10.1126/science.1257360):
# The other results are listed elsewhere or left out.
# B1: PhoQ; a variant is named by its letters at X, in order, P23837 (parent)
# chain: MKKLLRLFFPLSLRVRFLLATAAVVLVLSLAYGMVALIGYSVSFDKTTFRLLRGESNLFYTLAKWENNKLHVELPENIDKQSPTMTLIYDENGQLLWAQRDVPWLMKMIQPDWLKSNGFHEIEADVNDTSLLLSGDHSIQQQLQEVREDDDDAEMTHSVAVNVYPATSRMPKLTIVVVDTIPVELKSSYMVWSWFIYVLSANLLLVIPLLWVAAWWSLRPIEALAKEVRELEEHNRELLNPATTRELTSLVRNLNRLLKSERERYDKYRTTLTDLTHSLKTPLXXLQXXLRSLRSEKMSVSDAEPVMLEQISRISQQIGYYLHRASMRGGTLLSRELHPVAPLLDNLTSALNKVYQRKGVNISLDISPEISFVGEQNDFVEVMGNVLDNACKYCLEFVEISARQTDEHLYIVVEDDGPGIPLSKREVIFDRGQRVDTLRPGQGVGLAVAREITEQYEGKIVAGESMLGGARMEVIFGRQHSAPKDE
# Variants of: B1
# Test: enrichment ratio after two sorts for PhoP signalling (ratio (wild type AVST 3.29)); higher = more functional
# Settings: with PhoP (E. coli)
row,Variant,enrichment ratio
1,GVYD,≤ 0.25
2,NNFG,≤ 0.25
3,QTCY,≤ 0.25
4,WWGI,≤ 0.25
5,KRRR,≤ 0.25
6,MPLV,≤ 0.25
7,NMNG,≤ 0.25
8,FTMK,≤ 0.25
9,PWMC,≤ 0.25
10,TNMF,0.451
11,YKQN,≤ 0.25
12,NKTN,≤ 0.25
13,DHLA,≤ 0.25
14,DEYS,≤ 0.25
15,ISQH,≤ 0.25
16,LKYE,≤ 0.25
17,HTNH,≤ 0.25
18,NVRD,1.51
19,SEGK,≤ 0.25
20,RHHP,≤ 0.25
21,RNVY,≤ 0.25
22,RCYQ,≤ 0.25
23,VSMC,1.5
24,ISKS,≤ 0.25
25,GVFI,≤ 0.25
26,SISA,11.9

row,Variant,enrichment ratio
1,SYWC,≤ 0.25
2,IDFP,≤ 0.25
3,SSWP,≤ 0.25
4,EAIY,≤ 0.25
5,TVSF,9.17
6,RYFY,≤ 0.25
7,FYWL,≤ 0.25
8,SPPK,≤ 0.25
9,HHWK,≤ 0.25
10,EKRT,≤ 0.25
11,PNFW,≤ 0.25
12,LKDS,≤ 0.25
13,PLNA,≤ 0.25
14,KGRI,≤ 0.25
15,EHCC,≤ 0.25
16,TYMH,≤ 0.25
17,INRH,≤ 0.25
18,YVEP,≤ 0.25
19,QCVP,≤ 0.25
20,KMLW,≤ 0.25
21,IISA,≤ 0.25
22,GIPK,≤ 0.25
23,GPRS,≤ 0.25
24,TNKV,≤ 0.25
25,MTHG,≤ 0.25
26,PRIC,≤ 0.25

row,Variant,enrichment ratio
1,QFFW,≤ 0.25
2,PNHM,≤ 0.25
3,DYHS,≤ 0.25
4,AQMS,2.72
5,VIEK,≤ 0.25
6,QGIL,0.742
7,DAAF,≤ 0.25
8,FGRK,≤ 0.25
9,NDRD,≤ 0.25
10,PMDS,≤ 0.25
11,ALPG,≤ 0.25
12,LYVN,≤ 0.25
13,SGNY,≤ 0.25
14,YPSK,≤ 0.25
15,SCCA,8.33
16,TGMS,12.8
17,QFCA,≤ 0.25
18,INSR,≤ 0.25
19,NNIC,≤ 0.25
20,FIRS,≤ 0.25
21,KRAA,≤ 0.25
22,FAPK,≤ 0.25
23,TIKF,≤ 0.25
24,MQDL,≤ 0.25
25,MWSN,≤ 0.25
26,VSGN,≤ 0.25

row,Variant,enrichment ratio
1,AKNG,≤ 0.25
2,HIWC,≤ 0.25
3,MQPD,≤ 0.25
4,PGTY,≤ 0.25
5,ADYW,≤ 0.25
6,MQCI,1.41
7,NMNL,≤ 0.25
8,HDLW,≤ 0.25
9,QTNI,≤ 0.25
10,LCYS,≤ 0.25
11,MKWR,≤ 0.25
12,HAYR,≤ 0.25
13,IPNA,≤ 0.25
14,TVMA,11.1
15,FCAF,≤ 0.25
16,NFHY,≤ 0.25
17,NTRW,≤ 0.25
18,VVNK,≤ 0.25
19,GWPR,≤ 0.25
20,MMLK,≤ 0.25
21,NNRI,≤ 0.25
22,GCAV,≤ 0.25
23,QTIC,≤ 0.25
24,AMGC,≤ 0.25
25,FRLP,≤ 0.25
26,NKSV,≤ 0.25

row,Variant,enrichment ratio
1,QDFW,≤ 0.25
2,KGFA,≤ 0.25
3,HSKD,≤ 0.25
4,HRFD,≤ 0.25
5,RYVV,≤ 0.25
6,GKEG,≤ 0.25
7,RGAR,≤ 0.25
8,IGQM,≤ 0.25
9,VMTT,≤ 0.25
10,DPHQ,≤ 0.25
11,QSPD,≤ 0.25
12,TIVV,≤ 0.25
13,MLAH,≤ 0.25
14,FAIN,0.294
15,LSHD,≤ 0.25
16,TEST,23.4
17,NFVV,≤ 0.25
18,YCSI,0.257
19,YWKH,≤ 0.25
20,TAIG,≤ 0.25
21,NDYL,≤ 0.25
22,DPRK,≤ 0.25
23,SWAG,≤ 0.25
24,PITH,≤ 0.25
25,YPAS,≤ 0.25
26,WAWA,≤ 0.25

row,Variant,enrichment ratio
1,QTLR,≤ 0.25
2,CYVS,≤ 0.25
3,PSMW,≤ 0.25
4,SWFS,≤ 0.25
5,CINQ,≤ 0.25
6,HCMW,≤ 0.25
7,NPHW,≤ 0.25
8,QGMM,31.6
9,WVGL,≤ 0.25
10,VFLG,≤ 0.25
11,WGHH,≤ 0.25
12,KYEM,≤ 0.25
13,VNNH,≤ 0.25
14,QIPW,≤ 0.25
15,DLSD,≤ 0.25
16,WIKV,≤ 0.25
17,RCGD,≤ 0.25
18,VKWP,≤ 0.25
19,KRFM,≤ 0.25
20,ILVF,≤ 0.25
21,HKGY,≤ 0.25
22,SMKP,≤ 0.25
23,DSGG,≤ 0.25
